# Data from the supplement of paper PMC3334620.
# Whole data set: some 33,000 sequences, median “E-score (-0.5 to 0.5)” near -0.013, cut for the highest 2% near 0.3. Some of the results follow.
# Target: T1, Msn1 (UniProt P22148)
# T1 sequence: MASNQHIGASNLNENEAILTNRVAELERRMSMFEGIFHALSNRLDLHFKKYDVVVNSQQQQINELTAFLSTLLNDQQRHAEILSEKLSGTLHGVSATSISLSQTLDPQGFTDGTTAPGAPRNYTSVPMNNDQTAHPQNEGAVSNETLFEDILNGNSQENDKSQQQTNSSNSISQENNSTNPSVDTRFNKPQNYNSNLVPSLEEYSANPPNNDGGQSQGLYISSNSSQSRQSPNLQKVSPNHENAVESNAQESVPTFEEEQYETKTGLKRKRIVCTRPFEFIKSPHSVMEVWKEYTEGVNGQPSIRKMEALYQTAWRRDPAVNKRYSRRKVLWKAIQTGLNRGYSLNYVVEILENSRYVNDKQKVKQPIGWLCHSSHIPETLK
# Assay: PBM E-score (8-mer binding enrichment) (E-score (-0.5 to 0.5)); higher = stronger / more preferred TF binding; most listed sequences are background and not binding sites
# Settings: protein concentration: 200 nM; construct: GST-full length
# Method: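 Universal 'all 10-mer' protein binding microarrays (Agilent AMADID 015681) probed with GST-tagged S. cerevisiae TFs (full-length or DBD) made by in vitro transcription/translation (PURExpress), about 100-200 nM. Bound TF was detected with fluorescent anti-GST. Each ungapped 8-mer (which stands for itself and its reverse complement) is scored by the PBM enrichment score (E-score), a modified Wilcoxon-Mann-Whitney statistic from -0.5 to +0.5, computed with the Universal PBM Analysis Suite. Scale: above 0.35 generally sequence-specific binding.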
row,Sequence,PBM E-score
1,TAATCCCA,-0.206
2,GATTGGAC,0.109
3,AATACCCC,-0.107
4,CGCCTCAG,-0.124
5,ATTTGATC,-0.0736
6,CCTAGAAC,0.00465
7,CCTATCTA,-0.0647
8,AAAACCAG,0.152
9,ATGGAATA,0.187
10,AGTTGGAG,-0.0684
11,CCACTAAA,-0.146
12,ACAACGCA,0.098
13,GAACTGAC,0.0252
14,CTGGTCTC,-0.149
15,ACCCATTG,-0.0269
16,ACGTTGCC,-0.241
17,GCAACCAC,-0.131
18,AGTTCGGA,0.158
19,TGTCTTAA,0.375
20,ATCACTAC,-0.126
21,ATTTGCAA,0.103
22,CCACCTGA,-0.146
23,ACGGCCTG,0.00794
24,GGAACGCC,-0.114
25,AACACCGC,-0.0545

row,Sequence,PBM E-score
1,AAAATCAA,0.245
2,GCAATCTA,0.0427
3,ACTGCGTG,-0.193
4,CAGCGATC,-0.0399
5,TGATAACA,0.134
6,GCAGCTCA,-0.148
7,CAGGCGGA,0.223
8,GTCACTCA,0.132
9,TAAAGAGA,0.102
10,AGATAAAT,0.0766
11,GACACCAC,-0.00303
12,AATGTAGC,-0.0831
13,ACATACTC,0.0584
14,ACGGCAGC,-0.0632
15,CGTAGTGA,-0.0571
16,AGGTCGCA,-0.129
17,GTTTCAAA,0.115
18,AGGAGGGA,-0.175
19,TGCAGTAA,-0.117
20,ACCGTGGG,-0.191
21,CATCGTGG,-0.16
22,ACTAGGCA,-0.0969
23,GTCCGGAA,0.368
24,ACAGAGAT,0.123
25,CACGCACG,-0.0776

row,Sequence,PBM E-score
1,ATTTTGCC,0.0261
2,ATTGGGTG,-0.0765
3,GGTTCGGA,-0.00773
4,CACGTTGA,0.0175
5,TCTACAGA,-0.0918
6,ATGAGCGA,-0.0826
7,AGCAAACG,-0.143
8,ATTTAACC,-0.0432
9,GTTTAGCA,0.0757
10,AAGCGAGA,-0.127
11,ACCTCGGA,0.27
12,GACCCGGC,-0.0896
13,GCGGCACA,-0.0716
14,AATAGCAC,-0.265
15,GCGTAGTA,-0.246
16,CAAATGAC,0.176
17,AACTCAAC,0.0188
18,GCCAGGCC,-0.124
19,GTCATCAA,0.2
20,ACCTAAGG,-0.14
21,ATGGGATG,-0.177
22,CTGGCACA,-0.0539
23,ATTTTCGC,0.153
24,CTAGCCGA,-0.0318
25,TAACTCCA,-0.193

row,Sequence,PBM E-score
1,GCGCCTCC,-0.251
2,CTTATGGC,0.00332
3,GTCCAACA,0.249
4,AAGACCGT,-0.169
5,AGTCCCGA,0.0579
6,CTCGCTGC,-0.0928
7,GGGCTTTA,-0.268
8,CACTTGTC,0.408
9,ACGCTGAA,-0.085
10,AGCATCAA,-0.0363
11,ACGTCCGG,0.074
12,AACGTCAT,0.0824
13,AGTTAGGC,0.00759
14,TCGTGGAA,0.152
15,CGAGATTA,0.0953
16,AAGAAGCC,0.0299
17,GAGTAATA,0.115
18,ACATTACT,0.16
19,AGACTCTC,0.0159
20,CCATTAAC,0.139
21,TACCTAAA,0.0221
22,GGGCGGAC,-0.0714
23,CTGTGCGC,-0.00307
24,ATAACTGA,0.112
25,TGGCACAA,-0.00752

row,Sequence,PBM E-score
1,GTTGAAAC,0.135
2,CTTCACAC,0.184
3,ATAGTAGG,0.00769
4,AGGTTCAA,-0.0421
5,CGTTTTGA,0.218
6,AGTTGAAA,0.035
7,CCGACAAG,0.13
8,CCCTCTCC,-0.287
9,ATATGTGA,-0.0379
10,CCAGTGGA,-0.119
11,CATCTGCG,-0.0602
12,CTCCGGGA,-0.0499
13,AGATGCGA,0.0645
14,CCAAGAGA,0.053
15,ACTCCTAT,-0.16
16,CACCGTAG,-0.00759
17,CGCCCGCG,0.0352
18,CGGGTACA,-0.00669
19,CGTTGGTC,0.0344
20,CCTTTCGC,-0.146
21,CCATCGCA,-0.185
22,GGCCTATA,-0.265
23,CTACTCTC,-0.125
24,ATACGCTC,0.0274
25,AGTGCGGC,-0.254

row,Sequence,PBM E-score
1,AATTTTAG,0.199
2,CCATCTCA,-0.109
3,CAAGTCGC,-0.125
4,ACGAGCAC,-0.0209
5,ACCTTCAA,-0.0671
6,AGAAATTG,0.12
7,GTATCATA,0.123
8,AAGCCTTC,-0.205
9,CTGGACTC,-0.176
10,ACGTCAGA,-0.055
11,CGGTGAAG,-0.232
12,ATAGCCCC,-0.309
13,GCCAAGCA,-0.199
14,CAGATCAA,0.0015
15,CCATCAAA,-0.0115
16,AAATAACA,0.0895
17,GCACACGC,-0.0944
18,CTAATACA,0.116
19,GATACGGC,-0.139
20,TAATCTAA,0.0248
21,CCAGAAGC,-0.207
22,CCTTCCCA,-0.0879
23,AGTGGGAT,-0.0983
24,AAGACCCA,-0.165
25,GCCTAATA,0.0106

row,Sequence,PBM E-score
1,ATGCGTCA,0.068
2,CCTCATTC,-0.0955
3,TAGACCGA,0.133
4,CTATAAAA,0.175
5,ATCGTATG,0.0884
6,CTGAACCC,-0.0469
7,CCAACGAA,-0.0736
8,GAAGTTCC,-0.0697
9,GTACTCCA,-0.0631
10,GAATTCTA,0.13
11,AAGTAACC,-0.12
12,GCGACAAC,0.167
13,CGAACCCC,-0.246
14,ATGTTGTC,0.191
15,AGGTGCGC,-0.154
16,CCGGCGGC,-0.105
17,CACGACAC,0.063
18,CCACAAGA,-0.0867
19,GGATAAAA,0.233
20,ATAGCATG,-0.207
21,AGACACAC,0.133
22,CGGGATAA,0.112
